Measurements from PubChem BioAssay AID488969 (Vanderbilt High Throughput Screening Facility, 2010).
In all, about 110,000 compounds were measured (“z-score”: median about -0.1, highest 2% from about 2 on). This is one part of the list. Calls of active or inactive are those of the source.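 How the source made its calls: active means z-score in the third read window above 3 or below -3; inactive means the rest.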

biological target: Metabotropic glutamate receptor 8 (Rattus norvegicus) (UniProt P70579); assay: mGluR8 Gi/Go-coupled signaling modulation – cell-based, rat, thallium flux, HTS, primary screen (AID 488969); conditions: HEK293 rat mGluR8, GIRK (G protein-gated inwardly rectifying potassium channel) thallium flux, FluoZin2; at 10 µM; stronger effect = higher value; submaximal glutamate (EC20) added with thallium
Sequence of UniProt P70579 (P70579 whole entry, looked up): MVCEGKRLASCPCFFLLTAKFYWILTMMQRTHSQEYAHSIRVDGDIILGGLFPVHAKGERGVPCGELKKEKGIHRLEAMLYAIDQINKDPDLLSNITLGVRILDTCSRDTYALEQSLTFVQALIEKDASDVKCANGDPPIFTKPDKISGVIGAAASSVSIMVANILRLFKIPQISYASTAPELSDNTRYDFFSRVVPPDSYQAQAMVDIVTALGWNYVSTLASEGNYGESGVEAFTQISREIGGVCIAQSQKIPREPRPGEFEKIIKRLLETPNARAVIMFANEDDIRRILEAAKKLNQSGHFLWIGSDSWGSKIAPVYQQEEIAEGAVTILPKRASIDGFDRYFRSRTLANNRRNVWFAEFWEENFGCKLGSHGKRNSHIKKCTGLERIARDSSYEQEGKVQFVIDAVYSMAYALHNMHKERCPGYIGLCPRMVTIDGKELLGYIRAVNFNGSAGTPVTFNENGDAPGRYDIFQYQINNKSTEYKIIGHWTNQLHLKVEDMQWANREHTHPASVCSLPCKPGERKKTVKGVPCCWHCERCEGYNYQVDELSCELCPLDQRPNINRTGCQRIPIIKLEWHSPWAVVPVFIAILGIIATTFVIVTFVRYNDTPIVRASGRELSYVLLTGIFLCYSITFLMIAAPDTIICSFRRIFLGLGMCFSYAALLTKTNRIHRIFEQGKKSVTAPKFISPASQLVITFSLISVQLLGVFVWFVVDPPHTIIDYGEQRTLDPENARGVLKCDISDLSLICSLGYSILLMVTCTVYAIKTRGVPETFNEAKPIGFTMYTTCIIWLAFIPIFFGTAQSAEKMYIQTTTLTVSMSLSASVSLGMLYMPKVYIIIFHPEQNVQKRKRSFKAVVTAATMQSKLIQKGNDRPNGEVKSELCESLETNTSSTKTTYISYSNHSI

Row | SMILES | z-score
1 | COc1ncnc2c1cnn2-c1ccccc1 | -0.223
2 | CC1CCC/C(=N\NC(=S)NCc2ccccc2)C1 (configuration not stated) | 1.93
3 | N#Cc1cc2c(nc1SCC(=O)Nc1nccs1)CCCCC2 | -0.152
4 | CC(C)C(C)(C#N)NC(=O)CSc1ncnc2sc(-c3ccccc3)cc12 (configuration not stated) | active: 4.81
5 | Cc1ccc(-n2c(-c3c(-c4ccccc4)noc3C)n[nH]c2=S)cc1 | 0.919
6 | CCCC1=C(C(=O)OCC)C(c2ccc(OC)c(CSc3ccccn3)c2)C(C#N)=C(N)O1 (configuration not stated) | -0.0881
7 | CC1(C)CC(NC(=O)CC(c2ccccc2)c2ccccc2)CC(C)(C)N1 | 0.479
8 | C=CCc1ccc(OCCOCCOc2cccc3cccnc23)c(OC)c1 | -0.697
9 | NC(=O)NC(=O)COC(=O)CN1C(=O)C2CCCCC2C1=O (configuration not stated) | 0.309
10 | CCn1c(C)cc2c(c1=O)C(c1ccccc1)C(C(=O)OC)=C(N)O2 (configuration not stated) | 0.227
11 | CN(CC#CC1(O)c2ccccc2-c2ccccc21)Cc1ccccc1 | 0.054
12 | N#Cc1c2c(c(N3CCN(c4ccccn4)CC3)n3c1nc1ccccc13)CCC2 | -0.376
13 | Cc1ccc(C(C(=O)NC2CCCC2)N(C(=O)Cc2cccs2)c2ccc(C)c(C)c2)o1 (configuration not stated) | -0.224
14 | O=C(NCCN1C(=O)C2C3C=CC(C3)C2C1=O)Nc1ccc(Br)cc1 (configuration not stated) | 0.25
15 | COc1ccc2cc(CN(C(=O)Nc3ccccc3OC)C3CCCC3)c(=O)[nH]c2c1 | -0.24
16 | COc1ccc(C(=O)OC(C)CN2CCN(C)CC2)cc1OC (configuration not stated) | 0.331
17 | C=CCc1cccc2cc(C(=O)Nc3ccc(S(=O)(=O)Nc4nnc(CC)s4)cc3)c(=O)oc12 | -0.0201
18 | O=c1cc(N2CCN(c3ccccc3F)CC2)[nH]c(=O)n1-c1ccc(Br)cc1 | 0.0857
19 | O=C(CC(=O)Nc1ccccn1)Nc1ccccn1 | active: 4.08
20 | CCOc1ccccc1NC(=O)C(Sc1ccccc1)c1ccccc1 (configuration not stated) | -0.158
21 | Cc1ccc(-c2noc(CN(C(=O)CCCCCN3C(=O)c4ccccc4C3=O)C(C)C)n2)cc1 | 0.296
22 | O=C(Nn1cnnc1)C1Cc2ccccc2CN1S(=O)(=O)c1ccc(F)cc1 (configuration not stated) | -0.00582

Row | SMILES | z-score
23 | NC(=O)c1c(-c2ccccc2)oc2ccc(O)cc12 | 0.00752
24 | CCOc1ccc(NCc2nnc(SCC(=O)Nc3nc(-c4ccccc4)cs3)n2-c2ccccc2)cc1 | -0.203
25 | Cc1nnc(SCc2cc(=O)[nH]c(Nc3nc(C)c4ccccc4n3)n2)s1 | -0.33
26 | COC(=O)c1ccc(CSc2nnc(-c3c[nH]c4ccccc34)n2-c2ccccc2)cc1 | -0.222
27 | CCOc1ccc2nc(N3CCCC(C(=O)N4CCN(CC)CC4)C3)sc2c1 (configuration not stated) | -0.536
28 | Brc1ccc(Nc2c3c(nc4ncnn24)CCC3)cc1 | -0.339
29 | CC(C)C1N(C(=O)CN2CCCC2)CCN1S(=O)(=O)c1ccccc1 (configuration not stated) | 0.282
30 | N#Cc1ccccc1NC(=O)COC(=O)CSc1nc2ccccc2o1 | -2.27
31 | COC(=O)C1=C(C)N=C2SC(C#N)=C(N)N2C1c1ccc(OC)cc1 (configuration not stated) | -0.21
32 | COc1ccc(S(=O)(=O)N2CCC(N3CCN(c4ccccc4)CC3)CC2)cc1 | -0.0952
33 | COc1cc(NC(=O)CSc2nc3ccccc3c(=O)n2C)ccc1NC(=O)c1ccco1 | -0.617
34 | CC(C)(C)n1nc2c(c1NC(=O)CCCc1ccccc1)CS(=O)C2 (configuration not stated) | -0.193
35 | O=C1CC(c2ccccc2)=Nc2ccccc2N1 | -0.0288
36 | COc1ccc(C(=O)COc2nc(C)cc(C)c2C#N)cc1 | -0.635
37 | C=CCNC(=O)/C(=C\c1ccc2c(c1)OCO2)NC(=O)c1ccc(Br)cc1 | -0.116
38 | CC(C)C[C@H](NC(=O)NCc1ccccc1Cl)C(=O)O | 0.269
39 | COc1cccc(CNc2ncnc3cc(OC)c(OC)cc23)c1 | -0.0442
40 | COC(=O)c1ccccc1NC(=O)COC(=O)c1ccco1 | -0.773
41 | CC(C)CNC(=S)NC1CC2CCCC(C1)N2Cc1cccs1 (configuration not stated) | -0.473
42 | CC(=O)C1=C(O)C(=O)N(Cc2cccnc2)C1c1ccc(Cl)cc1 (configuration not stated) | -0.551
43 | CCOC(=O)N1CCC(NC(=O)c2cn(-c3ccc(OC)cc3)c(=O)c3ccccc23)CC1 | 0.552
44 | CC(C)(C)c1cc(C(=O)N2CCN(c3ncccn3)CC2)ccn1 | -0.275

Row | SMILES | z-score
45 | CCOC(=O)C1CCN(C(=O)c2cn(CCOC)c(=O)c3c2c2ccccc2n3C)CC1 | 0.278
46 | O=c1oc2ccccc2c(O)c1C=NCc1ccccn1 | 0.0197
47 | Cc1cc(C)c(C(=O)/C=C/c2cccc3ccccc23)c(=O)[nH]1 | -0.311
48 | CCCSc1nc(-c2ccccc2)cc(C(F)(F)F)c1C#N | -0.221
49 | O=C(CNC(=O)C12CC3CC(CC(C3)C1)C2)NC1=NCCS1 | -1.01
50 | COc1ccccc1NS(=O)(=O)c1cc(NC(=O)Cn2cnc3c2c(=O)n(C)c(=O)n3C)ccc1C | -0.578
51 | Cc1ccccc1N1CCN(C(=O)CCN2C(=O)c3ccccc3C2=O)CC1 | -0.36
52 | COc1ccc(C(C(O)C(=O)c2c[nH]c3ccccc23)N2CCN(c3ccc(OC)cc3)CC2)cc1 (configuration not stated) | 0.0102
53 | COc1ccc2c(c1)C(=O)c1ccccc1CO2 | -0.252
54 | Cc1c(NC(=O)C2CC(c3c(F)cccc3Cl)=NO2)c(=O)n(-c2ccccc2)n1C (configuration not stated) | -0.349
55 | c1ccc(Cn2nnnc2C(c2ccccc2)N2CCN(c3nc4ccccc4s3)CC2)cc1 (configuration not stated) | -0.038
56 | CCOC(=O)c1nn(-c2ccc(OCC)cc2)c2nc(CC(C)C)c(C#N)c(=O)n12 | -0.166
57 | O=C(NCc1ccccc1)NC1(C(=O)Nc2ccc3c(c2)OCCO3)CCCCC1 | -0.126
58 | O=C(/C=C/c1ccco1)Nc1sc2c(c1C(=O)O)CCC2 | -0.219
59 | C=CCn1c(SCc2nc3sc4c(c3c(=O)[nH]2)CCCC4)nc2ccccc2c1=O | 0.059
60 | CCOC(=O)N1CCN(C(=O)CS(=O)(=O)Cc2nc(-c3ccccc3C)oc2C)CC1 | 0.176
61 | CCOC(=O)C1CCCN(c2cc(C)nc3cc(-c4ccc(Cl)cc4)nn23)C1 (configuration not stated) | -0.161
62 | Cc1nnc(NC(=O)CCC(=O)N2CCC(C)CC2)s1 | -0.154
63 | O=c1[nH]c2cc3c(cc2cc1C(c1nnnn1C1CCCCC1)N1CCSCC1)OCCO3 (configuration not stated) | 0.278
64 | N#Cc1c(N)nc(SC2CCCCC2=O)c(C#N)c1-c1ccco1 (configuration not stated) | -0.131
65 | CCOc1ccccc1-c1nc(-c2ccc(NC(=O)c3ccc(Br)o3)cc2)no1 | -0.277
66 | Cc1csc(NC(=O)CSCC(=O)Nc2ccccc2)n1 | 0.462

Row | SMILES | z-score
67 | O=c1[nH]nc2c3ccccc3cnn12 | -0.408
68 | C=CCN(Cc1cccc(OC)c1OC)S(=O)(=O)N(C)C | -0.164
69 | Cc1nn(CCc2n[nH]c(=S)n2C)c(C)c1Br | -0.181
70 | O=C(Nc1cccc(-c2nc3ccccc3o2)c1)c1ccc(N2C(=O)C3C4C=CC(C4)C3C2=O)cc1 (configuration not stated) | -0.233
71 | Cc1sc(NC(=O)CSc2nnnn2C2CCCCC2)c(C#N)c1C | -0.147
72 | O=c1c(Cc2ccc(F)cc2)c(O)ccn1Cc1ccc(Cl)cc1Cl | 0.163
73 | Cc1c(NC(=S)NC(=O)COc2ccccc2)c(=O)n(-c2ccccc2)n1C | -0.15
74 | COc1ccc(N2CCN(C(=S)Nc3cc(C)ccc3C)CC2)cc1 | -0.671
75 | CC1Oc2ccccc2N(CC(=O)NCC2CCCO2)C1=O (configuration not stated) | -0.413
76 | COc1cccc(C(=O)c2c[nH]c(C(=O)NCc3cccs3)c2)c1 | -0.05
77 | Cc1ccc(C(=O)NC2CCCc3ccccc32)o1 (configuration not stated) | -0.375
78 | COc1cc(C(=O)Oc2c(CN3CCOCC3)cc(Cl)c3cccnc23)cc(OC)c1OC | -0.766
79 | COCC(C)NC(=O)CSc1nc2ccccc2n1CCc1ccccc1 (configuration not stated) | -0.151
80 | C=CCNC(=O)CSc1nc2sc(C)c(C)c2c(=O)[nH]1 | -0.119
81 | COc1ccc2c(c1)-c1nc(/N=C/c3cccc(OC)c3O)sc1CC2 | -0.372
82 | COc1ccccc1CNC(=O)CSc1ccc(Br)cc1 | 0.558
83 | COc1ccc(/C=C2\CCc3ccccc3C2=O)cc1Cn1nc(C)c(Br)c1C | -0.109
84 | O=C(c1ccc(Cl)cc1)C1CCN(C(=O)NC2CCCCC2)CC1 | -0.251
85 | CC1CCC(NC(=O)CN2C(=O)C3CCCN3c3ncc(Cl)cc32)CC1 (configuration not stated) | -1.48
86 | CCOc1ccc2noc3c2c1C(=O)c1ccccc1-3 | -2.43
87 | O=C(O)/C=C/C(=O)N(Cc1ccccc1)Cc1ccco1 | -0.334
88 | COc1cccc(Nc2nc3ccccc3nc2NS(=O)(=O)c2cccs2)c1 | -0.314

Row | SMILES | z-score
89 | Cc1c(Cl)cccc1-c1ccc(/C=N/n2cnnc2)o1 | -0.29
90 | O=C(Cn1nnc(-c2ccc(S(=O)(=O)N3CCCC3)cc2)n1)Nc1ccccc1-n1cccc1 | -0.35
91 | O=C(Nc1ccc(S(=O)(=O)N2CCCC2)cc1)c1ccc(CN2CCOCC2)cc1 | -0.076
92 | COc1ccc(C2C3CCCCC3(O)CCN2C(=O)c2cccs2)cc1 (configuration not stated) | 0.695
93 | CCOC(=O)c1nnn(-c2nonc2N)c1CN1CCCCCC1 | 0.089
94 | CCNC(=O)NC(=O)C(C)On1nnc2ccc(S(=O)(=O)N(CC)CC)cc21 (configuration not stated) | -0.438
95 | CCCN1CCN(CCCNC(=O)C2CCCN(c3nc4ccc(OCC)cc4s3)C2)CC1 (configuration not stated) | -0.2
96 | COc1ccc(C(C)=O)cc1COC(=O)c1cc(C)oc1C | -0.947
97 | O=C(Nc1ccc2c(c1)OCCO2)N1CCN(c2ccccc2)CC1 | 0.0611
98 | C/C=C/C(=O)OCC(=O)Nc1cc(-c2cc(C)c(C)cc2C)nn1-c1ccccc1 | 0.753
99 | CCC(=O)NC(=S)Nc1ccc(OC)cc1OC | -0.0781
100 | O=C(CSc1nnnn1C1CCCC1)Nc1ccc2c(c1)OCCO2 | -0.282
101 | COc1ccc(NS(=O)(=O)c2ccc3nc(COc4ccc(Cl)c(C)c4)[nH]c3c2)cc1 | -0.0225
102 | Cc1cc(C)nc(NC(=O)c2cccc([N+](=O)[O-])c2)c1 | 0.127
103 | CCN(CC)S(=O)(=O)c1cccc(N=NC2=C(O)CCCC2=O)c1 | 0.417
104 | COc1ccc(C(=O)Oc2cc3c4c(c2)C(C)=CC(C)(C)N4C(=O)C3=O)cc1OC | -0.442
105 | CCOC(=O)c1c(NC(=O)Cn2cnc([N+](=O)[O-])n2)sc2c1CCC(C)C2 (configuration not stated) | -0.152
106 | COc1ccc(Cl)cc1Nc1nc(-c2sc(NC(=O)CC(C)C)nc2C)cs1 | -0.277
107 | O=C(NCCN1CCOCC1)Nc1ccc(Cl)cc1Cl | -0.395
